Source: the supplement of paper PMC8728848
This is one part of the list.

Tests used:
Assay in all cases: glycan array binding signal (z-score within array); higher = stronger binding
Conditions in all cases: glycan notation: IUPAC condensed, linker removed
[1] = target: Gal(b1-4)GlcNAc(b1-3)GalNAc
Procedure, shortened: (§1)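 Glycan array data came from 3228 arrays in the Consortium for Functional Glycomics database, and only arrays with an available protein sequence were kept. Glycan names were put into IUPAC-condensed notation, and columns mapping to the same glycan were averaged. The binding signal is a within-array Z-score, averaged across arrays of one protein sequence run at different concentrations or buffers and across linkers. A negative Z-score can be read as non-binding.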

[2] = target: Gal(b1-4)GlcNAc(b1-3)[Gal(b1-4)GlcNAc(b1-6)]GalNAc
Procedure, shortened: as §1

[3] = target: Gal(b1-4)GlcNAc(b1-6)Gal(b1-4)GlcNAc(b1-6)GalNAc
Procedure, shortened: as §1

[4] = target: Gal(b1-4)GlcNAc(b1-6)GalNAc
Procedure, shortened: as §1

[5] = target: Gal(b1-4)GlcNAc(b1-6)[Gal(b1-3)]GalNAc
Procedure, shortened: as §1

Gal3S(b1-3)GalNAc = target: Gal3S(b1-3)GalNAc
Procedure, shortened: as §1

Gal3S(b1-3)GlcNAc = target: Gal3S(b1-3)GlcNAc
Procedure, shortened: as §1

[6] = target: Gal3S(b1-3)[Fuc(a1-4)]GlcNAc
Procedure, shortened: as §1

Gal3S(b1-4)Glc = target: Gal3S(b1-4)Glc
Procedure, shortened: as §1

Gal3S(b1-4)Glc6S = target: Gal3S(b1-4)Glc6S
Procedure, shortened: as §1

Gal3S(b1-4)GlcNAc = target: Gal3S(b1-4)GlcNAc
Procedure, shortened: as §1

Gal3S(b1-4)GlcNAc6S = target: Gal3S(b1-4)GlcNAc6S
Procedure, shortened: as §1

Gal3S6S(b1-4)GlcNAc = target: Gal3S6S(b1-4)GlcNAc
Procedure, shortened: as §1

Gal3S6S(b1-4)GlcNAc6S = target: Gal3S6S(b1-4)GlcNAc6S
Procedure, shortened: as §1

Gal4S(b1-4)GlcNAc = target: Gal4S(b1-4)GlcNAc
Procedure, shortened: as §1

Gal4S6S(b1-4)GlcNAc = target: Gal4S6S(b1-4)GlcNAc
Procedure, shortened: as §1

Gal6S(b1-4)Glc = target: Gal6S(b1-4)Glc
Procedure, shortened: as §1

Gal6S(b1-4)Glc6S = target: Gal6S(b1-4)Glc6S
Procedure, shortened: as §1

Gal6S(b1-4)GlcNAc = target: Gal6S(b1-4)GlcNAc
Procedure, shortened: as §1

GalNAc(a1-3)Gal = target: GalNAc(a1-3)Gal
Procedure, shortened: as §1

GalNAc(a1-3)GalNAc = target: GalNAc(a1-3)GalNAc
Procedure, shortened: as §1

[7] = target: GalNAc(b1-3)Gal(a1-4)Gal(b1-4)GlcNAc
Procedure, shortened: as §1

GalNAc(b1-3)GalNAc = target: GalNAc(b1-3)GalNAc
Procedure, shortened: as §1

GalNAc(b1-4)GlcNAc = target: GalNAc(b1-4)GlcNAc
Procedure, shortened: as §1

Glc(a1-4)Glc = target: Glc(a1-4)Glc
Procedure, shortened: as §1

Glc(a1-6)Glc(a1-6)Glc = target: Glc(a1-6)Glc(a1-6)Glc
Procedure, shortened: as §1

Glc(b1-4)Glc = target: Glc(b1-4)Glc
Procedure, shortened: as §1

Glc(b1-6)Glc = target: Glc(b1-6)Glc
Procedure, shortened: as §1

GlcA(b1-3)Gal = target: GlcA(b1-3)Gal
Procedure, shortened: as §1

GlcA(b1-6)Gal = target: GlcA(b1-6)Gal
Procedure, shortened: as §1

[8] = target: GlcNAc(a1-3)Gal(b1-4)GlcNAc
Procedure, shortened: as §1

[9] = target: GlcNAc(a1-6)Gal(b1-4)GlcNAc
Procedure, shortened: as §1

[10] = target: GlcNAc(b1-2)Gal(b1-3)GalNAc
Procedure, shortened: as §1

[11] = target: GlcNAc(b1-2)Man(a1-3)[GlcNAc(b1-2)Man(a1-6)]Man(b1-4)GlcNAc(b1-4)GlcNAc
Procedure, shortened: as §1

GlcNAc(b1-3)Gal = target: GlcNAc(b1-3)Gal
Procedure, shortened: as §1

[12] = target: GlcNAc(b1-3)Gal(b1-3)GalNAc
Procedure, shortened: as §1

GlcNAc(b1-3)Gal(b1-4)Glc = target: GlcNAc(b1-3)Gal(b1-4)Glc
Procedure, shortened: as §1

B1: LKITALY (Gibberella zeae) (protein)
chain: MGNFHESSNNIWLEDGHILHAECGNGEGDYVESTLDLDYYIGNDDGSFSWGGENFSGSASNITLDIEGDDNIPVLRAELNPMDGDPVEANVNLSERIGNDCGTLIFLA
glycan array binding signal (z-score) [1]: -0.361 | glycan array binding signal (z-score) [2]: -0.345 | glycan array binding signal (z-score) [3]: -0.342 | glycan array binding signal (z-score) [4]: -0.356 | glycan array binding signal (z-score) [5]: -0.355 | glycan array binding signal (z-score) (Gal3S(b1-3)GalNAc): 1.22 | glycan array binding signal (z-score) (Gal3S(b1-3)GlcNAc): 4.13 | glycan array binding signal (z-score) [6]: -0.359 | glycan array binding signal (z-score) (Gal3S(b1-4)Glc): 2.59 | glycan array binding signal (z-score) (Gal3S(b1-4)Glc6S): 2.82 | glycan array binding signal (z-score) (Gal3S(b1-4)GlcNAc): 2.74 | glycan array binding signal (z-score) (Gal3S(b1-4)GlcNAc6S): 2.96 | glycan array binding signal (z-score) (Gal3S6S(b1-4)GlcNAc): -0.312 | glycan array binding signal (z-score) (Gal3S6S(b1-4)GlcNAc6S): 3.55 | glycan array binding signal (z-score) (Gal4S(b1-4)GlcNAc): 1.22 | glycan array binding signal (z-score) (Gal4S6S(b1-4)GlcNAc): -0.312 | glycan array binding signal (z-score) (Gal6S(b1-4)Glc): -0.354 | glycan array binding signal (z-score) (Gal6S(b1-4)Glc6S): -0.342 | glycan array binding signal (z-score) (Gal6S(b1-4)GlcNAc): 2.01 | glycan array binding signal (z-score) (GalNAc(a1-3)Gal): -0.357 | glycan array binding signal (z-score) (GalNAc(a1-3)GalNAc): -0.351 | glycan array binding signal (z-score) [7]: -0.36 | glycan array binding signal (z-score) (GalNAc(b1-3)GalNAc): -0.36 | glycan array binding signal (z-score) (GalNAc(b1-4)GlcNAc): -0.349 | glycan array binding signal (z-score) (Glc(a1-4)Glc): -0.352 | glycan array binding signal (z-score) (Glc(a1-6)Glc(a1-6)Glc): -0.359 | glycan array binding signal (z-score) (Glc(b1-4)Glc): -0.359 | glycan array binding signal (z-score) (Glc(b1-6)Glc): -0.368 | glycan array binding signal (z-score) (GlcA(b1-3)Gal): -0.337 | glycan array binding signal (z-score) (GlcA(b1-6)Gal): -0.349 | glycan array binding signal (z-score) [8]: -0.363 | glycan array binding signal (z-score) [9]: -0.358 | glycan array binding signal (z-score) [10]: -0.343 | glycan array binding signal (z-score) [11]: -0.362 | glycan array binding signal (z-score) (GlcNAc(b1-3)Gal): -0.348 | glycan array binding signal (z-score) [12]: -0.356 | glycan array binding signal (z-score) (GlcNAc(b1-3)Gal(b1-4)Glc): -0.354
